# A collection of fitness landscapes (doi:10.1016/j.celrep.2020.107928)
# Over roughly 81,000 sequences, “one-hybrid fitness for binding NBS DNA” has its median near -0.1; the highest 2% begin near 0.36. This is one part of the list.
# B1: Caulobacter ParB omega fusion; a variant is named by its letters at X, in order, B8GW30 (parent)
# chain: MESVVVGEPGMSEGRRGLGRGLSALLGEVDAAPAQAPGEQLGGSREAPIEILQRNPDQPRRTFREEDLEDLSNSIREKGVLQPILVRPSPDTAGEYQIVAGERAWRAAQRAGLKTVPIMVRELDDLAVLEIGIIENVQRADLNVLEEALSYKVLMEKFERTQENIAQTIGKSXSHVANXMRLLXLPDEVQSYLVSGELTAXHARAIAAAADPVALAKQIIEGGLSVRETEALARKAPNLSAGKSKGGRPPRVKDTDTQALESDLSSVLGLDVSIDHRGSTGTLTITYATLEQLDDLCNRLTRGI
# Variants of: B1
# Experiment: one-hybrid fitness for binding NBS DNA (the Noc-binding site; scaled: cognate 1, non-cognate 0); higher = stronger binding
# Conditions: with NBS DNA site
# How it was run: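 Fitness is the rescaled log change in variant-to-wild-type read ratio, measured by Illumina sequencing of plasmids before and after bacterial one-hybrid selection. The scale puts cognate at 1 and non-cognate at 0. Selection of Caulobacter ParB libraries, four specificity codons randomised, took place in E. coli USO with a HIS3 reporter, site 19 bp from the promoter, over 48 hours at 37°C on M9-minus-histidine with 0.1 mM IPTG and 5 mM 3-AT.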
row,Variant,one-hybrid fitness for binding NBS DNA
1,IFAR,≤ 0.2
2,ISSY,≤ 0.2
3,SCNY,≤ 0.2
4,HKRS,≤ 0.2
5,LLDR,≤ 0.2
6,TAVE,≤ 0.2
7,PCTP,≤ 0.2
8,HNQC,≤ 0.2
9,KYLE,≤ 0.2
10,RYYP,≤ 0.2
11,FENS,≤ 0.2
12,EHAT,≤ 0.2
13,HLLG,≤ 0.2
14,EYEG,≤ 0.2
15,RWCV,≤ 0.2
16,KFQA,≤ 0.2
17,SCMS,≤ 0.2
18,DLLG,≤ 0.2
19,RRKQ,0.436
20,NKYG,≤ 0.2
21,VFSG,≤ 0.2
22,RVFD,≤ 0.2
23,CPEY,≤ 0.2
24,GCCG,≤ 0.2
25,WFSC,≤ 0.2

row,Variant,one-hybrid fitness for binding NBS DNA
1,LHAD,≤ 0.2
2,YCSR,≤ 0.2
3,QSYF,≤ 0.2
4,MGGA,≤ 0.2
5,QNLH,≤ 0.2
6,MWLS,≤ 0.2
7,TNWM,≤ 0.2
8,RTQV,≤ 0.2
9,GLGT,≤ 0.2
10,WTWS,≤ 0.2
11,EDIC,≤ 0.2
12,AGCF,≤ 0.2
13,QTCI,≤ 0.2
14,IARP,≤ 0.2
15,KNFC,≤ 0.2
16,QLYP,≤ 0.2
17,PHGY,≤ 0.2
18,PAND,≤ 0.2
19,RNVY,≤ 0.2
20,QFTF,≤ 0.2
21,WYDA,≤ 0.2
22,RWIG,≤ 0.2
23,DGDF,≤ 0.2
24,SAVS,≤ 0.2
25,PTKK,≤ 0.2

row,Variant,one-hybrid fitness for binding NBS DNA
1,WDHR,≤ 0.2
2,DAMF,≤ 0.2
3,QVHN,≤ 0.2
4,INPW,≤ 0.2
5,TQPI,≤ 0.2
6,QSLY,≤ 0.2
7,KETT,≤ 0.2
8,IYGG,≤ 0.2
9,AGSH,≤ 0.2
10,DQDR,≤ 0.2
11,HQDS,≤ 0.2
12,THNC,≤ 0.2
13,HQKT,≤ 0.2
14,KARM,≤ 0.2
15,HKKN,≤ 0.2
16,RVWV,≤ 0.2
17,LWNG,≤ 0.2
18,YNNS,≤ 0.2
19,CTPD,≤ 0.2
20,YPCL,≤ 0.2
21,CCIT,≤ 0.2
22,WLKG,≤ 0.2
23,STLG,≤ 0.2
24,EGQG,≤ 0.2
25,RTYD,≤ 0.2

row,Variant,one-hybrid fitness for binding NBS DNA
1,GVAL,≤ 0.2
2,RAAT,0.364
3,GCTL,≤ 0.2
4,QPFF,≤ 0.2
5,QLKI,0.234
6,LERK,≤ 0.2
7,RSKV,≤ 0.2
8,NDVH,≤ 0.2
9,PTPI,≤ 0.2
10,SDFS,≤ 0.2
11,VPIN,≤ 0.2
12,DCHG,≤ 0.2
13,QMME,≤ 0.2
14,PTSD,≤ 0.2
15,RNSE,≤ 0.2
16,GIYN,≤ 0.2
17,RTSG,≤ 0.2
18,SKLT,≤ 0.2
19,DVKS,≤ 0.2
20,IMLT,≤ 0.2
21,VMRY,≤ 0.2
22,DYRG,≤ 0.2
